According to the supplement of paper PMC12889115:
The list shows a part of the results. Many values rest on one well or one pass, so single values are uncertain.

tested on: Salmonella enterica serovar Typhimurium SL1344; experiment: bacterial growth OD600 after 18 h in MHB with 0.5 µg/mL polymyxin B; higher = more bacterial growth (less inhibition); conditions: 25 µM; polymyxin B 0.5 µg/mL; system: broth
Experimental: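 Secondary screen of the 553 primary hits at 25 µM. (i) S. Typhimurium SL1344 grown in Mueller-Hinton broth with 0.5 µg/mL polymyxin B, OD600 read after 18 h. (ii) SAFIRE assay: RAW 264.7 macrophages infected with S. Typhimurium sifB::gfp (MOI 30); compound added 2 h post-infection; cells fixed at 18 h; GFP-positive pixel fraction per macrophage imaged by confocal microscopy and expressed as % of DMSO control.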
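Also: polymyxin B level opens the outer membrane while sparing the inner membrane, with novobiocin wells as reference growth inhibitor.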

SMILES	bacterial growth OD600
O=C(c1coc(COc2cccc(F)c2)n1)N1CC[C@@H]2CCCC[C@H]2C1	0.007
COc1ccc(-n2ncc(C(C)NS(=O)(=O)c3cccc4nsnc34)c2C)cc1 (stereo unspecified)	0.376
Cc1cccc(S(=O)(=O)N2CCCC(CO)(Cc3cccc(Cl)c3)C2)c1 (stereo unspecified)	-0.019
CCOC(=O)N1CCC(N2Cc3cc(C)ccc3OC(c3ccsc3)C2)CC1 (stereo unspecified)	0.187
COCCCN1C(=O)CC(CC(=O)N2CC3(C)CC2CC(C)(C)C3)(c2ccccc2Cl)C1=O (stereo unspecified)	-0.029
Cc1ccc(OCCN(C)C(=O)C2CC23CCN(Cc2coc4ccccc4c2=O)CC3)cc1 (stereo unspecified)	0.531
CCOC(=O)C1(Cc2ccccc2Cl)CCN(Cc2nccn2CC)CC1	0.005
CCCCN(C)C(=O)c1sc2ncnc(N3CCCCCCC3)c2c1C	0.003
O=C(Cc1ccc2c(c1)OCO2)N(Cc1ccncc1)Cc1cccc(OCCc2ccc(F)cc2)c1	0.003
Cc1cc(Cl)c2oc(C(=O)N(CCO)Cc3ccccc3)c(C)c2c1	-0.006
CCn1ccnc1CN(C)C(=O)CC(c1ccccc1)c1ccc(Cl)cc1 (stereo unspecified)	0.003
Cc1c(C(=O)NCCCc2ccncc2)sc2ncnc(N3CCCCCCC3)c12	0.005
C=CCN(CC=C)c1ccc(-c2nc(-c3cccc(OC)c3OC)no2)cn1	-0.016
COC(=O)c1ccc(-c2nc(CN(C)C3CCCc4ccccc43)c(C)o2)cc1 (stereo unspecified)	0.003
Cc1cc(C(=O)N2CCc3c([nH]c4ccccc34)C2c2ccc(F)cc2)no1 (stereo unspecified)	0.002
COc1ccc(CN(Cc2ccncc2)C(=O)c2ccc(-c3cccc(F)c3)cc2)cc1OC1CCCC1	0.008

SMILES	bacterial growth OD600
CC(=O)Nc1ccnn1C1CCN(Cc2ccc(-c3ccccc3)cc2)CC1	0.399
Cc1nonc1CN(C)C(=O)C1CCCN(c2nc(-c3ccccc3)nc3c2CCC3)C1 (stereo unspecified)	-0.003
O=C(Nc1cccc(-c2ccc(F)cc2)c1)C1CCCN(C(=O)c2ccoc2)C1 (stereo unspecified)	0.003
Cc1ccnn1CC(=O)N(Cc1ccncc1)Cc1cccc(OCCc2ccc(F)cc2)c1	0
Cc1ccccc1C(NC1CCN(c2ccc(NC(=O)c3ccccc3F)cc2)CC1)c1ccncc1 (stereo unspecified)	0.463
CCOC(=O)C1(Cc2ccc(F)cc2)CCCN(C(=O)c2cc3ccccc3cn2)C1 (stereo unspecified)	0.002
CCCCN(C)C(=O)c1nc2ccccn2c1CN(C)Cc1ccc(CC)cc1	0.005
CN(Cc1ccccc1)C1(C(=O)NC2CCS(=O)(=O)C2)Cc2ccccc2C1 (stereo unspecified)	0.003
COc1ccc(OCc2cc(C(=O)NC(CO)C(C)C)no2)c2ccccc12 (stereo unspecified)	0.012
Cc1c[nH]c(CN(C)C(=O)C2(N3C[C@@H](C)O[C@@H](C)C3)Cc3ccccc3C2)n1	0.523
COc1cccc(CN(C)Cc2nc(-c3ccc(C(F)(F)F)cc3)oc2C)c1	0
CC(C)/C=C/C(=O)NCCN1Cc2ccccc2OC(c2ccccc2F)C1 (stereo unspecified)	-0.003
CSc1ccccc1C(=O)NCc1c(C)ncc2c1CCN(C(=O)c1cc3ccccc3o1)C2	-0.006
CCCCn1c(CN2CCCC(C(C)=O)C2)cnc1S(=O)(=O)CCCC(C)C (stereo unspecified)	0.018
CN(Cc1nccs1)C(=O)CC(c1ccccc1)c1cccc(Cl)c1 (stereo unspecified)	0.288
